Test results as given in PubChem BioAssay AID686970 (National Center for Advancing Translational Sciences (NCATS), 2013).
The campaign covered roughly 360,000 compounds. About 6,000 (1.7%) were called active. Inconclusive means that the source gave no clear call. Such entries were picked first, then a sample of the others. Calls come from the whole dose curve; as a rule, active = well fitted cell-killing curve with a large enough effect; inconclusive = small, poorly fitted or top-dose-only effect, or effect the other way; inactive = flat fitted curve, though single readings scatter. Potencies of inconclusive entries are left out as doubtful fits.

test: qHTS for induction of synthetic lethality in tumor cells producing 2HG: qHTS for the HT-1080-NT fibrosarcoma cell line; conditions: HT-1080-NT fibrosarcoma viability, CellTiter-Glo ATP luminescence, 48 h; series mostly up to 46.1 µM;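 note: NT is the 2HG producing partner of a matched IDH1 knockdown line; nearly all actives have a fitted effect of over 55% in size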
Summary of the method: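 Read-out is CellTiter-Glo luminescence after 10 minutes at room temperature, following 48 hours' compound treatment of HT-1080-NT cells (750 cells/well, RPMI, 5% FBS, 37 degrees C).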
Potency is the fitted concentration of half-maximal effect; tags give direction and shape of the fitted curve.

SMILES	Potency
O=[N+]([O-])c1ccc2c(c1)c1ccccc1n2CCO	inconclusive [cytotoxic, partial curve]
CCN(CC)CCCN(Cc1cc2cc(OC)ccc2[nH]c1=O)C(=O)Nc1ccccc1	inconclusive [cytotoxic, single point]
CC(C)(C)c1ccc(CN2N=Nc3ccccc3S2(=O)=O)cc1	inconclusive [cytotoxic, single point]
COc1ccc(Cl)cc1C(=O)O/N=C(\N)c1ccncc1	inconclusive [cytotoxic, single point]
CC1CC(C)CN(CC(=O)N2CCCc3c2c(=O)oc2ccc(OCc4ccccc4)cc32)C1 (stereo not given)	inconclusive [cytotoxic, single point]
Cc1ccc(S(=O)(=O)ON2C(=O)c3ccccc3C2=O)c(C)c1	inconclusive [cytotoxic, partial curve]
CCOC(=O)Cc1ccc(Nc2nc3cc(-c4sccc4C)sc3c(=O)n2C)cc1	active: 8.2 µM
COc1ccc(Cl)cc1NC(=S)N1CCCC1	inactive
COc1ccc(C(=O)c2cc(C(C)=O)c(Nc3ccccc3)s2)cc1	inconclusive [cytotoxic, single point]
OCC[C@@H]1C[C@H](O)[C@@H](O)[C@@]2(OCCc3ccccc32)O1	inconclusive [cytotoxic, single point]
COc1cc(CN2C[C@@H](CO)O[C@@H](n3cnc4c(N(C)C(C)C)ncnc43)C2)cc(OC)c1OC	inconclusive [rising, partial curve]
CCN(CC)C(=O)CSc1nc(O)c(Cc2ccccc2)c(=O)n1-c1ccccc1	inactive
O=C1C=CC(=O)N1c1ccccc1N1C(=O)C=CC1=O	active: 6.51 µM
Cc1cc(Cl)ccc1-c1cc2nc(NCCCN(C)C)n(C)c(=O)c2s1	active: 18.4 µM
O=C(CCS(=O)(=O)Cc1ccccc1)Nc1nnc(C(F)(F)F)s1	inconclusive [cytotoxic, partial curve]
CCCCNC(=S)Nc1ccc(C(F)(F)F)cc1	inconclusive [cytotoxic, single point]
Cn1ccc2c(-c3cccc(C=O)c3F)cc3c(c21)C1CCC3C1 (stereo not given)	inconclusive [cytotoxic, single point]
Cc1ccc(-n2c(C)cc(C(=O)CSc3nnnn3C)c2C)cc1	inactive
COc1cc(C(=O)NC2CCCCCCC2)cc(OC)c1OC	inactive
Cc1ccc(NC(=O)COc2cccc(C)c2C)cc1S(=O)(=O)N1CCCCCC1	inactive
CCOC(=O)c1c(-c2ccc(OC)cc2)csc1/N=C/C1=C(O)CCCC1=O	inconclusive [cytotoxic, single point]
COC(=O)c1cc(NC(=O)c2ccccc2)c(=O)oc1/C=C/Nc1ccc(Oc2ccccc2)cc1	inactive
CC(=O)Nc1ccc(NC(=O)/C=C/c2ccccc2)cc1	inconclusive [cytotoxic, partial curve, poor fit]

SMILES	Potency
Cc1cccc(N2CCN(C(=O)NCc3ccc(Cl)cc3)CC2)c1	inconclusive [cytotoxic, single point]
CC(=O)C1=C(C)NC(SCc2cccc([N+](=O)[O-])c2)=C(C#N)C1c1ccco1 (stereo not given)	inactive
CC(=O)c1cccc(S(=O)(=O)NCC(C)(C)N2CCOCC2)c1	inactive
Cc1ccc(S(=O)(=O)N(C)CC(=O)OCC(=O)N2CCCC2=O)cc1	inconclusive [rising, single point]
O=C1CCCc2oc3c(cc(NS(=O)(=O)c4ccc5c6c(cccc46)C(=O)N5)c4ccccc43)c21	inconclusive [cytotoxic, partial curve]
Cc1c(CCOC(=O)CC23CC4CC(CC(C4)C2)C3)sc[n+]1Cc1ccccc1	inconclusive [cytotoxic, single point]
Cc1nn2c(c1-c1ccccc1)NC1=C(C(=O)CCC1)C2c1ccccc1 (stereo not given)	inconclusive [cytotoxic, single point]
Cc1c(C(=O)NC(=S)Nc2ccc(NC(=O)c3cccs3)cc2)cccc1[N+](=O)[O-]	inconclusive [cytotoxic, single point]
Clc1ccc(C(Cn2ccnc2)OCc2c(Cl)cccc2Cl)c(Cl)c1 (stereo not given)	active: 16.4 µM
CN1/C(=C\C(=O)c2cccs2)C(C)(C)c2ccccc21	inactive
Cc1cccc2c1-c1sc(C(=O)NCCCN3CCc4ccccc4C3)cc1CO2	inconclusive [cytotoxic, partial curve]
Cc1ccc(NC(=O)c2nc[nH]c2C(=O)NCCCCNC(=O)c2[nH]cnc2C(=O)Nc2ccc(C)cc2)cc1	inconclusive [rising, partial curve, poor fit]
CCS(=O)(=O)CCSC(=N)N	inconclusive [cytotoxic, single point]
S=c1nc(-c2csc3c2CCCC3)[nH][nH]1	inactive
Cc1ccc(O)c(CCc2ccc(O)cc2)n1	inactive
COc1cc(CNCc2ccccn2)ccc1OCc1ccc(Cl)cc1	inconclusive [cytotoxic, single point]
O=[N+]([O-])c1ccc(N2CCCCCC2)c([N+](=O)[O-])c1	inactive
CN(Cc1cccs1)C(=O)c1ccc(Cl)c(S(=O)(=O)N2CCCCCC2)c1	inconclusive [cytotoxic, single point]
Cc1cc(Cl)ccc1C(O)c1ncc(-c2cccc(F)c2)[nH]1 (stereo not given)	inconclusive [cytotoxic, partial curve]
COc1ccc(Oc2nc3c(C)cccn3c(=O)c2/C=C(\C#N)C(N)=O)cc1	inconclusive [cytotoxic, full curve, poor fit]
CCCCN(C(=O)c1ccccc1Br)C(c1ccc(OC)cc1)c1nc2ccccc2[nH]1 (stereo not given)	inconclusive [cytotoxic, single point]
C=CCn1nc(C(=O)OCC)cc1-c1sc(NC(=O)c2ccccc2)nc1C	inconclusive [cytotoxic, single point]
